The RNAGym collection of RNA variant scans (doi:10.7554/elife.90254)
Read counts are not given, so values of variants with three or more changes are uncertain.

B1: LINE1-mini (parent)
chain: GGCAGAGCUCAACACAGCGUGGCAAAGUGGCUGUGGCUAGACUGCC

Variants of: B1
Experiment: self-cleavage, relative activity (ratio to wild type); higher = more cleavage; in vitro, sequencing; the parent is a self-cleaving ribozyme
A6C G21C U28G U32C C45A showed a self-cleavage of 0.02.
In the case of A6G C8G G17C U20C G44U, the self-cleavage is reported as 0.01.
In the case of A6C G33A A39G, the self-cleavage is reported as 0.03.
Variant A6C G22U U28A G29C G35A has a self-cleavage of 0.04.
A6G A25G U34A C37A U38C U43C C46A gave a self-cleavage of 0.
With A6G A16U C18A the self-cleavage was 0.08.
In the case of A6C G7U G40U, the self-cleavage is reported as 0.03.
In the case of A6G A16G U34G, the self-cleavage is reported as 0.02.
In the case of A6C C15A G19U U20A C46A, the self-cleavage is reported as 0.03.
Work on A6C C13G A14U G19U yielded a self-cleavage of 0.03.
A6C G33A G35U U43C gave a self-cleavage of 0.05.
A6C G35U U38G showed a self-cleavage of 0.01.
Variant A6G A16U C37U A41U has a self-cleavage of 0.01.
For A6C C23G G29C, the self-cleavage was 0.57.
With A6C G17A G22C C45G the self-cleavage was 0.03.
Work on A6G C8G A12G yielded a self-cleavage of 0.03.
A6G A14U G29U showed a self-cleavage of 0.08.
Variant A6G C10U A16G A25U C37G C45G has a self-cleavage of 0.02.
A6G A11C A12C G40A A41G G44A gave a self-cleavage of 0.
In the case of A6C C10U G17C G30U U38C G44U, the self-cleavage is reported as 0.02.
Work on A6C C15A A24C U28C U38C yielded a self-cleavage of 0.01.
A6G C8G A12U A14G G17A C23A G44U gave a self-cleavage of 0.04.
In the case of A6G C10U A11U G30C C31A, the self-cleavage is reported as 0.03.
In the case of A6C C23A G27A, the self-cleavage is reported as 0.31.
A6G C10U C18G gave a self-cleavage of 0.03.
A6C C13A G29A showed a self-cleavage of 0.11.
A6C C13A G29U showed a self-cleavage of 0.12.
In the case of A6C G29A U38G, the self-cleavage is reported as 0.03.
Work on A6G C13A C15G A24G yielded a self-cleavage of 0.09.
A6C G21A G22U gave a self-cleavage of 0.06.
With A6C C37A C46U the self-cleavage was 0.04.
For A6C C13A A14G G17U G22C C23A, the self-cleavage was 0.05.
A6C G19U G33C U34A G40U gave a self-cleavage of 0.18.
For A6C C18G C31A C37G, the self-cleavage was 0.01.
Work on A6G A11U C13U U32G U34A U43C C45G yielded a self-cleavage of 0.
In the case of A6C G21C A26C U32G A39U, the self-cleavage is reported as 0.02.
Variant A6G A12G G29U G36U has a self-cleavage of 0.01.
In the case of A6C G7U C15U C31A U34C A39U, the self-cleavage is reported as 0.08.
For A6G C8A C18U G21U, the self-cleavage was 0.18.
A6C G7U G17A A25C gave a self-cleavage of 0.19.
A6C C10U G22A A26G G27C G44A gave a self-cleavage of 0.06.
Work on A6C C23G A26C U43A yielded a self-cleavage of 0.03.
With A6C G29C C37U the self-cleavage was 0.
For A6C G21U C45U, the self-cleavage was 0.12.
A6C U9G G19A A26G G27A showed a self-cleavage of 0.01.
Work on A6G A24G G40U yielded a self-cleavage of 0.04.
For A6C G7A C15G C37A U38A, the self-cleavage was 0.03.
A6C G7U C37U gave a self-cleavage of 0.04.
Variant A6C G21A U34A G40A has a self-cleavage of 0.04.
A6G C8G G17A G27A G29C U38C showed a self-cleavage of 0.03.
With A6G A24C G40U the self-cleavage was 0.01.
A6C G21U G27U G36U showed a self-cleavage of 0.05.
A6C G19U U43A showed a self-cleavage of 0.03.
Work on A6G C10A G17A C42A yielded a self-cleavage of 0.03.
For A6C U32C G36A U38C, the self-cleavage was 0.01.
A6C C13A G22U C45U gave a self-cleavage of 0.06.
In the case of A6C C10A C13A, the self-cleavage is reported as 0.03.
For A6C U9C A16C U32G U38A, the self-cleavage was 0.03.
With A6C C18A G19U C23U the self-cleavage was 1.69.
A6C C18G G40A showed a self-cleavage of 0.04.
A6C U20G U32C C42U gave a self-cleavage of 0.02.
A6C G7A U9A G36U C37A gave a self-cleavage of 0.1.
Variant A6C G7A C13A C18A U32A has a self-cleavage of 0.04.
In the case of A6C U9A C13U C37U, the self-cleavage is reported as 0.16.
For A6C G21A U38A, the self-cleavage was 0.64.
A6C C10U C18A showed a self-cleavage of 0.06.
With A6C G22U G27U the self-cleavage was 0.24.
A6C G22C U43A gave a self-cleavage of 0.
A6G A41C C46A gave a self-cleavage of 0.17.
Work on A6C C13A G33U U34C A41G yielded a self-cleavage of 0.13.
For A6G C13A C18A C31G G33C, the self-cleavage was 0.02.
Variant A6G C10A A14C G30U has a self-cleavage of 0.02.
A6C U9G U28A showed a self-cleavage of 0.04.
Work on A6C G40U C45U yielded a self-cleavage of 0.04.
A6C C10A A14G G17U showed a self-cleavage of 0.16.
Variant A6G A12C A16G A26C G36A C37G has a self-cleavage of 0.01.
In the case of A6C U9A G35C G44C, the self-cleavage is reported as 0.04.
For A6G A11U C13U, the self-cleavage was 0.02.
With A6G C10G A11G A14C A16C G21U C31G the self-cleavage was 0.
For A6G C10A A11C C42A, the self-cleavage was 0.
With A6C G27C C42U the self-cleavage was 0.07.
A6C G21A A24G showed a self-cleavage of 0.66.
A6G A11U U43A gave a self-cleavage of 0.01.
